In all, about 52,000 compounds went through this assay and about 4,300 (8.3%) were called active. Rule as the data show it: active = survival mostly below about 52% (no sharp cut-off); inactive = mostly above about 56%. This is one part of the list.
What follows are compounds tested on DeltatarO mutant (assay: growth inhibition of S. aureus wild type versus tarO mutant, primary screen, teichoic acid synthesis inhibitors, RN4220, OD600 (AID 463173)). Conditions: OD600, 18 h, hits give low values, screened at 18.75 µg/mL (by protocol).
In the case of `O=C(CSc1nc2c([nH]c3ccccc32)c(=O)n1-c1ccc(Cl)cc1)NC1CCCCC1`, the survival is reported as inactive: 87%. `CCCCNC(=O)Nc1ccc2c(c1)N(C)C(=O)c1ccccc1S2` was tested, and the survival was inactive: 59%. For `CCc1ccc(NC(=O)N2CCN(Cc3nc4ccc(C)cc4o3)CC2)cc1`, the survival was inactive: 79%. With `COc1cccc(NC(=O)CN2C(=O)CC(c3ccco3)Sc3ccccc32)c1` (stereo not drawn) the survival was inactive: 67%. `Cc1cccc(C)c1NC(=O)C(=O)NCC(c1cccnc1)N1CCc2ccccc21` (stereo not drawn) was tested, and the survival was inactive: 62%. In the case of `COC(=O)c1sc(-c2ccccc2)cc1NC(=O)c1cccc(Cl)c1`, the survival is reported as active: 34%. `COc1cc(NC(=O)c2cc3c(=O)n(Cc4ccco4)ccc3nc2C)cc(OC)c1OC` was tested, and the survival was inactive: 75%. For `O=C(C1CCC(Cn2c(=O)c3sccc3n(Cc3ccccc3F)c2=O)CC1)N1CCOCC1` (stereo not drawn), the survival was inactive: 76%. `O=C(NCc1ccco1)c1ccc(S(=O)(=O)N2CCCc3ccccc32)cc1` was tested, and the survival was inactive: 82%. In the case of `CCOc1ccc(NC(=O)CN2C(=O)c3ccccc3Sc3ccc(C(=O)OC)cc32)cc1`, the survival is reported as inactive: 74%. For `COc1cc(NC(=O)CSc2nc(-c3ccccc3)no2)cc(OC)c1`, the survival was inactive: 80%. For `Cc1cc(C)cc(-n2c(SCC(=O)NCc3ccc(F)cc3)nc3c([nH]c4ccccc43)c2=O)c1`, the survival was inactive: 91%. With `Cc1ccc2c(c1)c(=O)c1ccccc1n2CCCC(=O)Nc1ccc(Cl)c(Cl)c1` the survival was active: 45%. `CCOC(=O)N1CCc2c(sc(NCc3cccs3)c2C(=O)Nc2cc(Cl)ccc2OC)C1` was tested, and the survival was inactive: 78%. For `COc1ccc(CN(C(=O)c2cc(=O)c3ccccc3o2)C2CCS(=O)(=O)C2)cc1OC` (stereo not drawn), the survival was inactive: 113%. For `Cc1ccc(S(=O)(=O)N2C(=S)SCC2(C)C)cc1`, the survival was inactive: 73%. With `CCOC(=O)c1c(NC(=O)c2ccc(S(=O)(=O)N(CC(C)C)CC(C)C)cc2)sc2c1CCN(CC)C2` the survival was inactive: 66%. With `N#CC(C#N)=Cc1cn(-c2ccccc2)nc1-c1ccccc1` the survival was inactive: 68%. In the case of `O=C(CSc1nccn1Cc1ccccc1)Nc1nc2ccccc2s1`, the survival is reported as inactive: 117%. In the case of `COc1ccc(OC)c(NC(=O)COCc2cc(-c3ccco3)on2)c1`, the survival is reported as inactive: 49%. For `O=C(Nc1cccc(C(F)(F)F)c1)c1cc2nc(-c3ccco3)cc(C(F)(F)Cl)n2n1`, the survival was inactive: 64%. With `Cc1cc(C)c(Cn2c(=O)n(Cc3ccccc3)c(=O)c3c(C)c(C)sc32)c(C)c1` the survival was inactive: 49%. `Cc1ccc(S(=O)(=O)c2nnn(CC(=O)Nc3ccccc3C)c2N)cc1` was tested, and the survival was inactive: 95%. For `COc1ccc(-n2nc(C(=O)N3CCCCC3)c3c4ccccc4n(C)c3c2=O)cc1Cl`, the survival was inactive: 127%. With `COc1ccc(OCC(=O)N2CCN(S(C)(=O)=O)CC2)cc1` the survival was inactive: 67%. With `CCOC(=O)c1cc(-c2ccccc2)n(CCC(=O)NCCc2ccc(C)cc2)c1C` the survival was inactive: 71%. With `C1CCC(Nc2nc(N3CCOCC3)nc(N3CCOCC3)n2)CC1` the survival was inactive: 90%. In the case of `Cc1ccc(-n2c(C)cc(/C=C(/C#N)c3ccccc3)c2C)cc1`, the survival is reported as inactive: 103%. `COc1ccc(N2CCN(S(=O)(=O)c3cc(Br)cc4c3N(C(=O)C3CC3)CC4)CC2)cc1` was tested, and the survival was inactive: 77%. `Cc1ccc(NC(=O)Cn2c(=O)n(Cc3ccco3)c(=O)c3sc4ccccc4c32)c(C)c1` was tested, and the survival was inactive: 103%. `CC(C)(C)OC(=O)N1CCC(c2c(C(=O)N3CCN(c4ccccn4)CC3)cnn2-c2cccc(F)c2)CC1` was tested, and the survival was inactive: 77%. In the case of `CCOC(=O)c1c(C)c(-c2ccccc2)n(CC(=O)NCc2ccccc2)c1C`, the survival is reported as inactive: 75%. `COc1cc2c(=O)c(S(=O)(=O)c3ccc(C(C)C)cc3)cn(Cc3ccccc3C)c2cc1OC` was tested, and the survival was inactive: 64%. In the case of `Cc1ccc(C(=O)NCC(c2ccco2)S(=O)(=O)c2ccccc2)cc1C` (stereo not drawn), the survival is reported as inactive: 89%. In the case of `COCCNC(=O)Cn1cnc2sc(C)c(S(=O)(=O)N3CCN(c4ccccc4OC)CC3)c2c1=O`, the survival is reported as inactive: 145%. With `CCc1nn2c(=O)cc(COC(=O)c3ccccc3NC(=O)COc3ccc(F)cc3)nc2s1` the survival was inactive: 92%. In the case of `COc1cc(CNCCSc2nnnn2C)ccc1OCc1ccc(F)cc1`, the survival is reported as inactive: 122%. In the case of `CC(CNC(=O)c1nnc(Cc2cccc(F)c2)o1)c1ccccc1` (stereo not drawn), the survival is reported as inactive: 76%. `CCOC(=O)c1[nH]c(C)c(CCC(=O)Nc2cccc(C(F)(F)F)c2)c1C` was tested, and the survival was inactive: 87%. `CCOc1ccc(-n2cc(-c3ccccc3)c3c(NC4CCCCC4)ncnc32)cc1` was tested, and the survival was inactive: 78%. For `Cc1nn(-c2ccccc2)c(OC(=O)c2ccccc2Cl)c1S(=O)(=O)c1ccccc1`, the survival was inactive: 84%. For `COc1ccc2c(c1)c1c(c(=O)n(-c3cccc(Cl)c3)c(=O)n1CC(=O)NCC1CCCO1)n2C` (stereo not drawn), the survival was inactive: 83%. With `Cc1ccc(CNC(=O)CCS(=O)(=O)c2ccc3c(c2)CC(C)N3C(=O)C2CC2)cc1` (stereo not drawn) the survival was inactive: 91%. `CCOc1ccc(-c2nnc(SCC(=O)NCc3ccc(C)cc3)nc2-c2ccc(OCC)c(OC)c2)cc1OC` was tested, and the survival was inactive: 67%. `O=c1oc2ccc3ccccc3c2cc1-c1nnc(Nc2ccc(Cl)cc2Cl)s1` was tested, and the survival was inactive: 83%. In the case of `COc1cccc(NC(=O)CSc2nc(=O)n(Cc3ccccn3)c3c2CCC3)c1`, the survival is reported as inactive: 71%. `CCc1ccc(NC(=O)Cn2c(=O)c(CNc3ccccc3)cc3cc(OC)c(OC)cc32)cc1` was tested, and the survival was inactive: 99%. `COc1ccc(CCNC(=O)c2ccc3c(c2)N=C(C)c2cc(C)ccc2S3)cc1OC` was tested, and the survival was inactive: 63%. In the case of `Cc1cccc(NC(=O)C2CCCN(S(=O)(=O)c3c(C)[nH]c(=O)[nH]c3=O)C2)c1C` (stereo not drawn), the survival is reported as inactive: 129%. For `Cc1ccc(Cn2nnc3c(=O)[nH]c(C4CCCN(C(=O)c5ccco5)C4)nc32)cc1` (stereo not drawn), the survival was inactive: 91%. `COc1ccc(-c2nc3ccccc3o2)cc1NC(=O)C(C)(C)Oc1ccc(Br)cc1` was tested, and the survival was active: 4%. With `CC1=CC(C)C(/C=N/O)C(C)C1` (stereo not drawn) the survival was inactive: 94%. `O=c1[nH]c(=O)n(-c2ccc(Cl)cc2)c(O)c1/C=N/n1cnnc1` was tested, and the survival was inactive: 58%. `CC(=O)N(CN1C(=O)c2ccccc2C1=O)c1ccccc1` was tested, and the survival was inactive: 102%. In the case of `COc1ccc(N2CC(NC(=O)C3CC3)CC2=O)cc1` (stereo not drawn), the survival is reported as inactive: 71%. For `CCC(NC(=O)Nc1ccc(OC)c(OC)c1)c1c(-n2cccc2)sc2c1CCN(C)C2` (stereo not drawn), the survival was inactive: 65%. With `CC(=O)c1cccc(NC(=O)[C@H](Cc2ccccc2)N2Cc3ccccc3C2=O)c1` the survival was inactive: 67%. In the case of `c1ccc2c(c1)COC1(CCCCC1)N2`, the survival is reported as inactive: 94%. In the case of `COc1ccccc1C(=O)NCCSc1c(C)[nH]c2ccccc12`, the survival is reported as inactive: 50%. `CCN(CC)C(=O)Cn1c(=O)n(Cc2ccc(C(=O)NCc3ccc(C)cc3)cc2)c(=O)c2ccccc21` was tested, and the survival was inactive: 83%. For `Cc1ncc(CO)c2c1Oc1nc(-c3ccccc3)nc(SCC(=O)N3CCCCC3)c1C2`, the survival was inactive: 85%. For `CS(=O)(=O)N1CCc2cc(C(=O)Nc3ccc(Cl)c(C(F)(F)F)c3)ccc21`, the survival was active: 33%. With `O=C(C1CCC(CNS(=O)(=O)c2ccc(Br)s2)CC1)N1CCN(c2ccccc2Cl)CC1` (stereo not drawn) the survival was inactive: 95%. For `CCOc1cc2sc(N3CCC(C(=O)Nc4ccccc4C(=O)OC)CC3)nc2cc1Br`, the survival was inactive: 103%. `COc1ccc(NC(=O)Cn2c(=O)n(-c3cccc(C)c3)c(=O)c3c2c2cc(C)ccc2n3C)cc1Cl` was tested, and the survival was inactive: 72%. `O=C1OC(c2ccccc2)=N/C1=C1\OC(=O)c2ccccc21` was tested, and the survival was inactive: 73%. For `Cc1ccc(NC(=O)c2cn3c4c(ccc(Cl)c4c2=O)OC(C)C3)cc1C` (stereo not drawn), the survival was inactive: 92%. For `CCOCCCNC(=O)c1cc2c(=O)n(C)c3ccccc3c2n1C`, the survival was inactive: 86%. `O=c1oc2ccccc2n1CCCOc1ccccc1Cl` was tested, and the survival was active: 3%. In the case of `COc1cccc(N2CCN(C(=O)CCS(=O)(=O)c3ccc4c(c3)CC(=O)N4C)CC2)c1`, the survival is reported as inactive: 80%. In the case of `O=C(Cn1c(=O)oc2cc(S(=O)(=O)N3CCCC3)ccc21)NCc1ccc(Cl)cc1`, the survival is reported as inactive: 115%. In the case of `c1ccc(-c2nc3cc(Cc4ccc5oc(-c6ccccn6)nc5c4)ccc3o2)nc1`, the survival is reported as inactive: 109%. For `O=C(CN1CCN(Cc2ccc3c(c2)OCO3)CC1)N1c2ccccc2CCc2ccccc21`, the survival was inactive: 95%. For `CCN1CCC(N(Cc2cccc(OC)c2)C(=O)Nc2cccc(C)c2C)CC1`, the survival was active: 20%. For `CC1=Nc2cc(C(=O)NCc3ccc(C)cc3)ccc2Sc2ccc(Cl)cc21`, the survival was inactive: 67%. With `COc1ccc(C2N=C(N)Nc3nc4ccccc4n32)c(OC)c1OC` (stereo not drawn) the survival was inactive: 64%. With `COc1ccc(C(=O)Nc2cc(-c3ccccc3)nn2-c2ccccc2)cc1` the survival was inactive: 75%. With `O=C(COCc1cc(-c2cccs2)on1)Nc1cc(Cl)ccc1O` the survival was inactive: 92%. `CCOC(=O)c1cccc(NC(=O)c2cc3cc4cc(OC)ccc4nc3s2)c1` was tested, and the survival was inactive: 76%. For `COc1ccc(C)cc1NC(=O)CN1C(=O)COc2ccc(S(=O)(=O)N3CCOCC3)cc21`, the survival was inactive: 98%. With `Cc1ccc(CNC(=O)C2CCN(S(=O)(=O)Cc3ccccc3)CC2)cc1` the survival was inactive: 75%. For `COc1ccc(CNc2oc(/C=C/c3cc(OC)c(OC)c(OC)c3)nc2C#N)cc1`, the survival was inactive: 59%. With `O=C(Cn1c(-c2cccs2)cc2cc(F)ccc21)N1CCN(c2ccccc2)CC1` the survival was inactive: 71%. For `COc1ccc(C)cc1-n1nnc(S(=O)(=O)c2ccc(C)cc2)c1C`, the survival was inactive: 54%. For `COc1ccc2c(C)c(CCC(=O)NCc3ccccc3OC)c(=O)oc2c1`, the survival was inactive: 64%. `Cc1cccn2c(=O)c(C(=O)NC(C)c3ccccc3)c(O)nc12` (stereo not drawn) was tested, and the survival was inactive: 58%. For `CCOc1ccc(Nc2oc(/C=C/c3ccc(OC)c(OC)c3)nc2C#N)cc1`, the survival was active: 55%. For `COCCn1c(SCC(=O)NCc2ccco2)nnc1-c1cccs1`, the survival was inactive: 114%.

Source: PubChem BioAssay AID463173 (ICCB-Longwood Screening Facility, Harvard Medical School, 2010)
